Source: patent US20220162323A1

B1: mAb1-tubulysin 1ALP (antibody, human IgG4 S228P, kappa)
heavy: QVQLVESGGGVVQPGRSLRLSCAASGFTFSSYGMHWVRQAPGKGLEWVAVIWYDGSNKYYADSVKGRFTISRDNSKNTLYLQMNSLRAEDTAVYYCAREESSASGVDYWGQGTLVTVSSASTKGPSVFPLAPCSRSTSESTAALGCLVKDYFPEPVTVSWNSGALTSGVHTFPAVLQSSGLYSLSSVVTVPSSSLGTKTYTCNVDHKPSNTKVDKRV[human IgG4 Fc with S228P (EU numbers) omitted]
light: EIVLTQSPGTLSLSPGERATLSCRASQSVSTRYLAWYQQKRGQAPRLLIYGASSRATGIPDRFSGSGSGTDFTLTISRLEPEDFAVYYCQEYGSSSITFGQGTRLEIKRTVAAPSVFIFPPSDEQLKSGTASVVCLLNNFYPREAKVQWKVDNALQSGNSQESVTEQDSKDSTYSLSSTLTLSKADYEKHKVYACEVTHQGLSSPVTKSFNRGEC
modifications: here or on the partner: deglycosylated; Q295 carries azido-PEG3-amine clicked to Tubulysin 1A-LP; DAR 2.1 per antibody
B2: mAb1-maytansinoid 1ALP (antibody)
heavy: QVQLVESGGGVVQPGRSLRLSCAASGFTFSSYGMHWVRQAPGKGLEWVAVIWYDGSNKYYADSVKGRFTISRDNSKNTLYLQMNSLRAEDTAVYYCAREESSASGVDYWGQGTLVTVSSASTKGPSVFPLAPCSRSTSESTAALGCLVKDYFPEPVTVSWNSGALTSGVHTFPAVLQSSGLYSLSSVVTVPSSSLGTKTYTCNVDHKPSNTKVDKRV[human IgG4 Fc with S228P (EU numbers) omitted]
light: EIVLTQSPGTLSLSPGERATLSCRASQSVSTRYLAWYQQKRGQAPRLLIYGASSRATGIPDRFSGSGSGTDFTLTISRLEPEDFAVYYCQEYGSSSITFGQGTRLEIKRTVAAPSVFIFPPSDEQLKSGTASVVCLLNNFYPREAKVQWKVDNALQSGNSQESVTEQDSKDSTYSLSSTLTLSKADYEKHKVYACEVTHQGLSSPVTKSFNRGEC
modifications: here or on the partner: maytansinoid 1ALP (mc-VC-PAB-NMe-C3-May) linker-payload conjugated; residues not stated in Example 5; DAR 2.5 per antibody

Target: FGFR2c on NCI-H716 cells (human), P21802
Test: cell-based or functional assay

FGFR2c on NCI-H716 cells (human), P21802, sequence (P21802 22-821): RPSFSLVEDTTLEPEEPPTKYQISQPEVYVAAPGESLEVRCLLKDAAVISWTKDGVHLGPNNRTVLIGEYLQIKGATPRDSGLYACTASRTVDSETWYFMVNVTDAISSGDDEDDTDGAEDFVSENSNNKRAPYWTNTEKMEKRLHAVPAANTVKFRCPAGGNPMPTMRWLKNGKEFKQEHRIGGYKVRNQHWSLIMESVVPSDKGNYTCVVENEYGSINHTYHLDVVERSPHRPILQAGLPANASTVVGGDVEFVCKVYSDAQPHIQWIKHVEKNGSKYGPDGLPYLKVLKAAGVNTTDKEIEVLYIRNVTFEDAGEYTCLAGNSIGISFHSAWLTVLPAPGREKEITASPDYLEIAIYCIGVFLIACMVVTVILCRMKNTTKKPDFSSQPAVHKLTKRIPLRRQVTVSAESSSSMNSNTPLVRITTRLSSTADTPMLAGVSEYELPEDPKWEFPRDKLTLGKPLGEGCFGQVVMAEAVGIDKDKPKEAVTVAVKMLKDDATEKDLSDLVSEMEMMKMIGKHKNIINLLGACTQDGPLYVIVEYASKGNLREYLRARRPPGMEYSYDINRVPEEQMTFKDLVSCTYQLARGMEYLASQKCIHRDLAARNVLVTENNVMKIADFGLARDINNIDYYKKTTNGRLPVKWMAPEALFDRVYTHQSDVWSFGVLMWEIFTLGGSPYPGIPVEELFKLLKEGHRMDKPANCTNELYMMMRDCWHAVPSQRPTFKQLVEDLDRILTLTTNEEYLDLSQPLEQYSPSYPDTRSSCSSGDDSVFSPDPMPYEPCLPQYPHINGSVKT

| Binder | IC50 (M), CellTiter-Glo cytotoxicity, NCI-H716 cells, 6 days [M] | Max % Kill, NCI-H716 cells [%] |
| --- | --- | --- |
| B1 | > 2e-08 | 19.3 |
| B2 | > 2e-08 | 0.5 |
